# From PubChem BioAssay (Tox21)
# The inconclusive results got no clear call from the source; some entries with a clear call stand among them for comparison. For part of these data: A potency beside an inconclusive call is a rough fit, not a confirmed value. The source made the active and inactive calls. Unless noted, calls come from the whole dose curve; as a rule, active = well fitted curve in the direction sought with a large enough effect in the repeat runs; inconclusive = weak or mixed curves; inactive = no such curve, though single readings can be large; an effect the other way counts as inactive or inconclusive.
# Key:
# [1] = qHTS assay for small molecule agonists of the p53 signaling pathway (AID 651631; calls by dose curve; note: nearly all actives have a fitted effect of over 15% in size; note: potency is the fitted concentration of half-maximal effect; for activation: % is set by controls: 0 for no effect and ±100 for the full control effect); settings: HCT-116 p53RE-bla reporter, beta-lactamase FRET ratio, 16 h; activation: at 73.3 µM (top of the series) unless noted
# Outline: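 Fluorescence intensity from cleaved LiveBLAzer B/G substrate (2 h, room temperature) served as the signal. Beforehand, HCT-116 reporter cells bearing p53 response elements were treated 16 h at 37 °C with DMSO-dissolved compounds.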
# [2] = molecular target: Glucocorticoid receptor (Homo sapiens) (UniProt P04150); test: qHTS assay to identify small molecule antagonists of the glucocorticoid receptor (GR) signaling pathway (AID 720692; active = well fitted inhibition curve with a large enough effect in the signal ratio in the repeat runs, not every such curve was filed as active; inconclusive = weak or mixed curves, or effect the other way; inactive = no such curve, though single readings can be large or run the other way; the % refers to the signal ratio; note: potency is the fitted concentration of half-maximal effect); settings: GR-bla HeLa, beta-lactamase FRET ratio, dexamethasone-stimulated, 18 h; activity change, negative = inhibition: at 58.5 µM (top of the series) unless noted
# Chain of UniProt P04150 (P04150 whole entry, looked up): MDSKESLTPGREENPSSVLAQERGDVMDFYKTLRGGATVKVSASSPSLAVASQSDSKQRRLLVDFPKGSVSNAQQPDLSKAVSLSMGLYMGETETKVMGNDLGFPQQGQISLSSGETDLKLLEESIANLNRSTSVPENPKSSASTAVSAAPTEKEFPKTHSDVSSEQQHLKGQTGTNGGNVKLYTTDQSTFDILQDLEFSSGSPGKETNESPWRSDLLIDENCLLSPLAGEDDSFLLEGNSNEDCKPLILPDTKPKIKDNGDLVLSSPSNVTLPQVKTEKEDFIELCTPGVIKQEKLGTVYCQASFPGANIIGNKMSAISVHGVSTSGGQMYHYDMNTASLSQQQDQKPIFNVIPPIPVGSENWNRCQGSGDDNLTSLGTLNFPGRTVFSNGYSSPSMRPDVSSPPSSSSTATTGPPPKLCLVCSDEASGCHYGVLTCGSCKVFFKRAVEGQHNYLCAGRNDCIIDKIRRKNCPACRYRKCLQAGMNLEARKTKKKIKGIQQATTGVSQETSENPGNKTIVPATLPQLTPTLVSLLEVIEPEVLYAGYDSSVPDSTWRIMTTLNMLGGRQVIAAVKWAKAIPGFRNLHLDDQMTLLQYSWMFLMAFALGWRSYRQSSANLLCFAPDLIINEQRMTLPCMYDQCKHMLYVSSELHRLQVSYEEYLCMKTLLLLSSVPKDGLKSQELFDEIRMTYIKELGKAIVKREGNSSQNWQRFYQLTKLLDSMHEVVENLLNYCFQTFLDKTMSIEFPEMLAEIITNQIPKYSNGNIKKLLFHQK
# Outline: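 Cells plated, rested 4 h at 37 C/5% CO2; compounds in DMSO pin-transferred; dexamethasone added to 5 nM final; 18 h at 37 C; B/G FRET substrate added, 2 h room temperature; fluorescence measured.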
# [3] = qHTS assay to identify small molecule antagonists of the thyroid receptor (TR) signaling pathway - cell viability counter screen (AID 743064); settings: GH3.TRE-Luc viability, CellTiter-Fluor, 24 h; activity change, negative = cytotoxic: at 70.3 µM (top of the series) unless noted; note: nearly all actives have a fitted effect of over 50% in size; note: potency is the fitted concentration of half-maximal effect
# Outline: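 Same-well viability check: GH3.TRE-Luc cells stimulated with 1 nM T3 alongside test compound for 23.5 h, followed by CellTiter-Fluor fluorescence.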
# [4] = qHTS assay to test for compound auto fluorescence at 460 nm (blue) in HEK293 cells (AID 720678); note: % is set by controls: 0 for no effect and ±100 for the full control effect
# Outline: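 HEK293 cells (2,000/well, medium with 10% dialyzed FBS) attached 4-5 hr, then exposed to compound overnight at 37C, 5% CO2. Blue fluorescence read at 405/460 nm, with triamterene as reference fluorophore.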
# [5] = qHTS assay for identifying genotoxic compounds that show differential cytotoxicity against isogenic chicken DT40 cell lines with known DNA damage response pathways - Rev3 mutant cell line (AID 743014); settings: chicken DT40 Rev3-/- viability, CellTiter-Glo, 40 h; activity, negative = cytotoxicity: at 68.4 µM (top of the series) unless noted; note: nearly all actives have a fitted effect of over 55% in size; note: potency is the fitted concentration of half-maximal effect
# [6] = molecular target: Estrogen receptor (Homo sapiens) (UniProt P03372); test: qHTS assay to identify small molecule antagonists of the estrogen receptor alpha (ER-alpha) signaling pathway (AID 743069; active = well fitted curve in the direction sought with a large enough effect in the signal ratio in the repeat runs, not every such curve was filed as active; inconclusive = weak or mixed curves, or effect the other way; inactive = no such curve, though single readings can be large or run the other way; the % refers to the signal ratio; note: potency is the fitted concentration of half-maximal effect); settings: HEK293 ER-alpha-UAS-bla, beta-lactamase ratio, antagonist mode; activity, negative = inhibition: at 69.4 µM (top of the series) unless noted
# Chain of UniProt P03372 (P03372 whole entry, looked up): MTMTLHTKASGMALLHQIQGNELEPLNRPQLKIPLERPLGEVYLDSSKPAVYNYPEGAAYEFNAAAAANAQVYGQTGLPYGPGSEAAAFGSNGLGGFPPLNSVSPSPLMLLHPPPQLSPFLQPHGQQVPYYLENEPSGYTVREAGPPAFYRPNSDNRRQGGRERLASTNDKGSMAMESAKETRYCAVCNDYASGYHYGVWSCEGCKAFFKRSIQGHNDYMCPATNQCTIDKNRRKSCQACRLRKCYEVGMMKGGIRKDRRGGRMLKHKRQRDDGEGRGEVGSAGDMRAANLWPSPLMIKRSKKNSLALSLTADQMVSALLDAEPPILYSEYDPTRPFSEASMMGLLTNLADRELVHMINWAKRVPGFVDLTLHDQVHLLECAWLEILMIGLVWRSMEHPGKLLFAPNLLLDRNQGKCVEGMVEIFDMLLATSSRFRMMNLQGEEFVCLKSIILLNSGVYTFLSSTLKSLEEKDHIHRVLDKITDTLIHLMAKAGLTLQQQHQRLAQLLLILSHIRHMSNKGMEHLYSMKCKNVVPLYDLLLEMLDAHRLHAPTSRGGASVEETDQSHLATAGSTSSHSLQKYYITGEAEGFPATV
# Outline: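 Reporter cells (ER-alpha-bla, HEK293 background) are conditioned overnight in stripped-serum medium (2% charcoal-stripped FBS). Compound and 17beta-estradiol exposure runs 18 hr at 37C, 5% CO2.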
# [7] = molecular target: Estrogen receptor (Homo sapiens) (UniProt P03372); test: qHTS assay to identify small molecule agonists of the estrogen receptor alpha (ER-alpha) signaling pathway using the BG1 cell line (AID 743079); settings: BG1Luc4E2 cells, ERE-luciferase agonist, 22 h; activation: at 70.3 µM (top of the series) unless noted; note: nearly all actives have a fitted effect of over 20% in size; note: potency is the fitted concentration of half-maximal effect
# [8] = qHTS assay to identify small molecule antagonists of the estrogen receptor alpha (ER-alpha) signaling pathway using the BG1 cell line (AID 743080; calls by dose curve;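 note: BG1 cells stimulated with 17beta-estradiol alongside compound; potency is the fitted concentration of half-maximal effect; nearly all actives have a fitted effect of over 25% in size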); settings: BG1Luc4E2 ERE-luciferase antagonist mode, luminescence; activity change, negative = inhibition: at 70.3 µM (top of the series) unless noted
# Outline: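 BG1-Luc-4E2 cells (endogenous full-length ER-alpha, 4xERE luciferase) hormone-starved 5 days in charcoal-stripped FBS, plated 4,000/well for 24 h, then compound plus 17beta-estradiol for 21.5 h at 37 C; ONE-Glo luminescence read.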
# [9] = molecular target: Glucocorticoid receptor (Homo sapiens) (UniProt P04150); test: qHTS assay to identify small molecule agonists of the glucocorticoid receptor (GR) signaling pathway (AID 720691; active = well fitted activation curve with a large enough effect in the signal ratio in the repeat runs, not every such curve was filed as active; inconclusive = weak or mixed curves, or effect the other way; inactive = no such curve, though single readings can be large or run the other way; the % refers to the signal ratio; note: potency is the fitted concentration of half-maximal effect); settings: GR-bla HeLa, beta-lactamase reporter ratio, 18 h; activation: at 62.4 µM (top of the series) unless noted
# Outline: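 Agonist mode in a HeLa line carrying a GRE-controlled beta-lactamase reporter. Compounds act for 18 h at 37 C before a 2 h room-temperature FRET substrate step and fluorescence reading.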
# [10] = qHTS assay to identify small molecule antagonists of the glucocorticoid receptor (GR) signaling pathway - cell viability counter screen (AID 720693); settings: GR-bla HeLa viability, CellTiter-Glo luminescence, 18 h, with 5 nM dexamethasone present; viability change, negative = cytotoxic: at 58.5 µM (top of the series); note: potency is the fitted concentration of half-maximal effect; nearly all actives have a fitted effect of over 55% in size
# [11] = qHTS assay to identify small molecule antagonists of the androgen receptor (AR) signaling pathway - cell viability counter screen (AID 743033; note: potency is the fitted concentration of half-maximal effect; nearly all actives have a fitted effect of over 45% in size); settings: AR-bla HEK293 viability, CellTiter-Glo luminescence, 16 h; activity change, negative = cytotoxicity: at 58.5 µM (top of the series) unless noted
# [12] = molecular target: Androgen receptor (Homo sapiens) (UniProt P10275); test: qHTS assay to identify small molecule antagonists of the androgen receptor (AR) signaling pathway (AID 743035; active = well fitted inhibition curve with a large enough effect in the signal ratio in the repeat runs, not every such curve was filed as active; inconclusive = weak or mixed curves, or effect the other way; inactive = no such curve, though single readings can be large or run the other way; the % refers to the signal ratio; note: potency is the fitted concentration of half-maximal effect); settings: HEK293 AR-UAS-bla, R1881-stimulated, beta-lactamase FRET, 16 h; activity change, negative = inhibition: at 58.5 µM (top of the series) unless noted
# Chain of UniProt P10275 (P10275 whole entry, looked up): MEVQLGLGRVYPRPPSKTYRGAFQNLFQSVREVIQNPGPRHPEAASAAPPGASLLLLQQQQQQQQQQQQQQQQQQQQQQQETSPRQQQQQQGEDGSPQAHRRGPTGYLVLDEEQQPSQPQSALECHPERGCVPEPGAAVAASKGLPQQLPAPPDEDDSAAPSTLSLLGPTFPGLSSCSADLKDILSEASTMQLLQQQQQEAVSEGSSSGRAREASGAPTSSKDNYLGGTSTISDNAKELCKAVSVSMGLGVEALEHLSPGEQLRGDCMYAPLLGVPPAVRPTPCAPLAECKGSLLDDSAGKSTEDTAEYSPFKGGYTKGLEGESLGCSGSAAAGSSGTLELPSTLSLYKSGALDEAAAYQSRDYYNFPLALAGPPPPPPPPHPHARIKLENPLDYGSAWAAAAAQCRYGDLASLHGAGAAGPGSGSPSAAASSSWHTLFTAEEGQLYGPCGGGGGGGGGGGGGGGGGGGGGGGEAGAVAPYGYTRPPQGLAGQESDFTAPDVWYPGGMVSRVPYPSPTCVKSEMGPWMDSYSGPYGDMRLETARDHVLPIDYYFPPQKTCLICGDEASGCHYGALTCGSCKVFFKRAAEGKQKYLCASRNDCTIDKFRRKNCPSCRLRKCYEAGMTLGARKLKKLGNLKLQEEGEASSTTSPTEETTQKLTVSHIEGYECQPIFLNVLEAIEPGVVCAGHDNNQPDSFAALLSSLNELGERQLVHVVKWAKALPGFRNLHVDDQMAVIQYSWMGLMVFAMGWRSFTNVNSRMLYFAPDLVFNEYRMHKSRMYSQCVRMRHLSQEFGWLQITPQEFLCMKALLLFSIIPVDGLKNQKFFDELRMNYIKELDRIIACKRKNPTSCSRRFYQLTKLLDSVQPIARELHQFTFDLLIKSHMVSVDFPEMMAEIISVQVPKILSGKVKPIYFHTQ
# Outline: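 Antagonism is scored as loss of R1881-driven beta-lactamase reporter expression in HEK293 cells carrying the reporter under a UAS element, after 16 h co-treatment at 37C and a 2 h room-temperature FRET substrate read.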
# [13] = molecular target: Androgen receptor (Homo sapiens) (UniProt P10275); test: qHTS assay to identify small molecule agonists of the androgen receptor (AR) signaling pathway (AID 743036; active = well fitted activation curve with a large enough effect in the signal ratio in the repeat runs, with a control signal flat, not every such curve was filed as active; inconclusive = weak or mixed curves, or effect the other way; inactive = no such curve, though single readings can be large or run the other way; the % refers to the signal ratio; note: potency is the fitted concentration of half-maximal effect); settings: HEK293 AR-UAS-bla GripTite, beta-lactamase FRET ratio, 16 h; activation: at 62.4 µM (top of the series) unless noted
# Outline: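 Agonist activity was scored by beta-lactamase reporter fluorescence in stably transfected HEK293 cells exposed to compounds for 16 h at 37C and 5% CO2. Substrate loading took 2 h at room temperature.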
# [14] = qHTS assay to identify small molecule antagonists of the androgen receptor (AR) signaling pathway using the MDA cell line - cell viability counter screen (AID 743041; note: potency is the fitted concentration of half-maximal effect; nearly all actives have a fitted effect of over 45% in size); settings: MDA-kb2 viability, CellTiter-Fluor, 16 h, cells co-treated with R1881 androgen agonist; viability change, negative = cytotoxic: at 70.3 µM (top of the series)
# Outline: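 Same-well cytotoxicity was assessed by CellTiter-Fluor in MDA-kb2 AR-luc cells after 16 h of compound treatment under R1881 agonism.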
# [15] = test system: thyroid hormone receptor (rat, GH3 cells); test: qHTS assay to identify small molecule agonists of the thyroid receptor (TR) signaling pathway (AID 743066; calls by dose curve; note: % is set by controls: 0 for no effect and ±100 for the full control effect); settings: GH3.TRE-Luc cells, TR agonist luciferase, 24 h; activation: at 83.9 µM (top of the series) unless noted
# [16] = qHTS assay to identify small molecule antagonists of the estrogen receptor alpha (ER-alpha) signaling pathway - cell viability counter screen (AID 743074; calls by dose curve;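 note: HEK293 cells carrying ER-alpha-UAS-bla reporter stimulated with 17beta-estradiol; nearly all actives have a fitted effect of over 45% in size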; note: potency is the fitted concentration of half-maximal effect)
# [17] = qHTS assay to identify small molecule antagonists of the estrogen receptor alpha (ER-alpha) signaling pathway using the BG1 cell line - cell viability counter screen (AID 743081); settings: BG1Luc4E2 viability, CellTiter-Fluor, 22 h; activity change, negative = cytotoxicity: at 70.3 µM (top of the series) unless noted;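 note: compound given together with 17beta-estradiol as the ER stimulus; nearly all actives have a fitted effect of over 45% in size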; note: potency is the fitted concentration of half-maximal effect
# [18] = qHTS assay to identify small molecule that activate the aryl hydrocarbon receptor (AhR) signaling pathway - cell viability counter screen (AID 743086)
# Outline: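 HepG2-AhR-luc (HG2L7.5c1) cells, 4000/well, treated 24 h at 37 C with compound; viability measured as CellTiter-Fluor fluorescence after 30 min in the same wells as the luciferase read.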
# [19] = molecular target: Peroxisome proliferator-activated receptor gamma (Homo sapiens) (UniProt P37231); test: qHTS assay to identify small molecule agonists of the peroxisome proliferator-activated receptor gamma (PPARg) signaling pathway (AID 743094; active = well fitted activation curve with a large enough effect in the signal ratio in the repeat runs, not every such curve was filed as active; inconclusive = weak or mixed curves, or effect the other way; inactive = no such curve, though single readings can be large or run the other way; the % refers to the signal ratio; note: % is set by controls: 0 for no effect and ±100 for the full control effect); settings: HEK293H PPARg-UAS-bla, beta-lactamase FRET ratio, 17 h; activation: at 57 µM (top of the series) unless noted
# Chain of UniProt P37231 (P37231 whole entry, looked up): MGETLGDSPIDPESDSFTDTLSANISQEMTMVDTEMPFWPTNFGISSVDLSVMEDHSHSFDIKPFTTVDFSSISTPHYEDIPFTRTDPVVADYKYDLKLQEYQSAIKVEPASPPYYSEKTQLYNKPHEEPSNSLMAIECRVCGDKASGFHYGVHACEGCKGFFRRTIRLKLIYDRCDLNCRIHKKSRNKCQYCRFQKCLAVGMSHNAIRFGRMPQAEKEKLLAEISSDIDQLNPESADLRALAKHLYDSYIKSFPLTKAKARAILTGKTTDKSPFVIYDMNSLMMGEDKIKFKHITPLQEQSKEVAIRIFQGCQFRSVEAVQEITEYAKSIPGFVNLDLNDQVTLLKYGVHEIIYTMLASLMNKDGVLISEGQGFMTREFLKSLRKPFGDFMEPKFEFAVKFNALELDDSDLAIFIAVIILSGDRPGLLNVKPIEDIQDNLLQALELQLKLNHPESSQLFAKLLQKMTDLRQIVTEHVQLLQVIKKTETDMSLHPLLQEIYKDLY
# Outline: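 Quantitative HTS agonist mode: stable HEK293H line with UAS-beta-lactamase reporter under PPARg control, 17 h compound exposure at 37C, fluorescence after 1 h FRET substrate loading at room temperature.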
# [20] = qHTS assay for identifying genotoxic compounds that show differential cytotoxicity against isogenic chicken DT40 cell lines with known DNA damage response pathways - wild type cell line (AID 743012); settings: DT40 wild type chicken cells viability, CellTiter-Glo, 40 h; activity change, negative = cytotoxicity: at 68.4 µM (top of the series) unless noted; note: % is set by controls: 0 for no effect and ±100 for the full control effect; nearly all actives have a fitted effect of over 60% in size
# Outline: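 Cells (DT40 wild type, 300/well) are treated with DMSO-dissolved compounds after a ~0.5 h pre-incubation and kept 40 h at 37 C/5% CO2. Viability is then measured by CellTiter-Glo luminescence following 30 min at room temperature.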
# Tags give direction and shape of the fitted curve or compound fluorescence and quenching.
smiles,measurement,setting,value
OCl,Potency,[1],inactive
same,"activity change, negative = inhibition",[2],inconclusive: 1.19%
same,Potency,[3],inactive
Cc1c(Cl)cccc1Nc1ncccc1C(=O)O,Potency,[1],"inconclusive: 37.6 µM [activator, partial curve, poor fit]"
same,Potency,[4],inactive
same,Potency,[5],inactive
same,Potency,[3],"inconclusive: 33.5 µM [cytotoxic, single point]"
same,Potency,[6],"inconclusive: 23.9 µM [fluorescent, partial curve]"
same,activation,[7],inconclusive: 6.65% [phenotype inactive]
same,Potency,[8],"inconclusive: 33.5 µM [rising, single point]"
C/C=C1\NC(=O)[C@H]2CSSCC/C=C/[C@H](CC(=O)N[C@H](C(C)C)C(=O)N2)OC(=O)C(C(C)C)NC1=O (stereo partly drawn),Potency,[1],active: 7.5 µM
same,Potency,[9],inconclusive: 2.39 µM [cytotoxic]
same,Potency,[2],"inconclusive: 3.01 µM [cytotoxic, full curve]"
same,Potency,[10],active: 2.39 µM
same,Potency,[5],active: 0.0012 µM
same,Potency,[11],active: 4.77 µM
same,Potency,[12],"inconclusive: 12 µM [falling, partial curve, poor fit]"
same,Potency,[13],inconclusive: 13.4 µM [partial curve]
same,Potency,[14],active: 7.5 µM
same,Potency,[3],active: 0.0119 µM
same,activation,[15],inconclusive: -8.84% [phenotype inactive]
same,Potency,[6],"inconclusive: 3.01 µM [cytotoxic, full curve, poor fit]"
same,Potency,[16],active: 6.74 µM
same,Potency,[7],"inconclusive: 0.0237 µM [inhibitor, full curve]"
same,Potency,[8],active: 0.0531 µM
same,Potency,[17],"inconclusive: 33.5 µM [cytotoxic, single point]"
same,Potency,[18],active: 15 µM
same,activation,[19],inconclusive: 28.1%
CCCCC(=O)N(Cc1ccc(-c2ccccc2-c2nn[nH]n2)cc1)[C@@H](C(=O)O)C(C)C,Potency,[1],"inconclusive: 29.8 µM [falling, partial curve, poor fit]"
same,Potency,[20],inactive
same,Potency,[5],"inconclusive: 26.6 µM [rising, partial curve, poor fit]"
same,Potency,[16],inactive
same,Potency,[17],inactive
